Data published in PubChem BioAssay AID624417 (National Center for Advancing Translational Sciences (NCATS), 2012).
Hit rate of the full screen: of about 410,000 compounds, about 6,400 (1.6%) were called active. Inconclusive results, whose numbers are uncertain, are shown with a selection of clear calls. The call rests on the fitted dose curve; in most records, active means well fitted inhibition curve with a large enough effect; inconclusive means small, poorly fitted or top-dose-only effect; inactive means no such curve, though single readings can be large or run the other way. Where the call is inconclusive, the potency comes from a doubtful curve fit.

target: Glucagon-like peptide 1 receptor (Homo sapiens) (UniProt P43220); experiment: qHTS of GLP-1 Receptor Inverse Agonists (Inhibition Mode); settings: HEK293 GLP-1R CRE-luciferase, luminescence, 24 h, GLP-1R form is constitutively active; activity change, negative = inhibition: at 38.3 µM (top of the series) unless noted; further: nearly all actives have a fitted effect of over 55% in size
Sequence of UniProt P43220 (P43220 whole entry, looked up): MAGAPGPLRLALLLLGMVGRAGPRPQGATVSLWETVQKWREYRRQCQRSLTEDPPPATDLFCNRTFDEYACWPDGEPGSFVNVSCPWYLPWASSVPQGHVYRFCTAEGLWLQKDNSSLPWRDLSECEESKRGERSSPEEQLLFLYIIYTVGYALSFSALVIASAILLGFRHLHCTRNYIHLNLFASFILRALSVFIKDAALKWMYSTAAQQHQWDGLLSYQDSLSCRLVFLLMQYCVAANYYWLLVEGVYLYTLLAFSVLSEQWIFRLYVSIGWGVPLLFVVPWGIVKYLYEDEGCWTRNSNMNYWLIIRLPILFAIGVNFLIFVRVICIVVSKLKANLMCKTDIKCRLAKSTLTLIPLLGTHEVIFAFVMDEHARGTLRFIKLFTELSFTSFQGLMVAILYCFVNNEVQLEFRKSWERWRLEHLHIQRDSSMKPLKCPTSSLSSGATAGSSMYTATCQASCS
Summary of the method: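 qHTS in 1536-well format: reporter HEK293 cells expressing constitutive GLP-1R activity in DMEM + 10% Nu serum, 24 hr with compounds at 37 deg C, luminescence read after 12 min with detection reagent.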
On the % scale 0 is the no-effect control and ±100 the full control effect; potency means the concentration at half of the fitted maximal effect; tags describe the fitted curve by direction and shape.

Activity change, negative = inhibition, inactive:
OCCNC1=NCCN1 10.9%
N#CCSc1nnc(CNc2cccc(Cl)c2)o1 2.7%
Cc1nn(C(=O)c2ccc(Cl)cc2)c(C)c1Sc1ccc(Cl)cc1 -2.46%
N#Cc1ccccc1Oc1ccc(S(=O)(=O)N2CCCCC2)cn1 1.91%
COC(=O)c1cccc(NC(=O)C2CCN(S(=O)(=O)Cc3ccccc3)CC2)c1C -1.62%
O=C(N/N=C/c1ccc([N+](=O)[O-])o1)c1cc2c(ccc3ccccc32)o1 5.77%
COc1ccc(CNC(=O)C2CCN(c3nc4ccccc4[nH]3)CC2)c(OC)c1 -2.59%
Cc1ccc(NC(N)=S)cc1C -0.177%
COc1cc(C(=O)Nc2nnc(S(=O)(=O)N(C)c3ccccc3)s2)cc(OC)c1OC 15.6%
CSc1ncccc1C(=O)NCC(c1ccco1)N1CCCCC1 (stereo not drawn) 13.5%
Cc1ccc(S(=O)(=O)NCCCCCC(=O)Nc2ccccc2C)cc1 0.92%
COc1cccc(/C=C2\SC(N3CCC(C)CC3)=NC2=O)c1OC 5.49%

Activity change, negative = inhibition, inconclusive:
N#CC1=C(N)Oc2cc(N)ccc2C1c1ccccc1F (stereo not drawn) -39.7% [inhibitor]

Potency, active:
CCCc1c(C(=O)Nc2ccc(F)cc2)cnn1-c1ccccc1 10 µM

Potency, inconclusive:
CCc1noc(C)c1C(=O)N1CCCSC1=Nc1ccccc1C(C)C 28.2 µM [inhibitor, partial curve, poor fit]
COc1ccccc1/C=C1\CCC(C2CCCC2)C1=O (stereo not drawn) 11.2 µM [inhibitor, partial curve, poor fit]
COc1ccccc1NC(=S)NC1CCCCCCCCCCC1 0.562 µM [inhibitor, full curve, poor fit]
COc1ccc(Cl)cc1-c1cc(C(=O)Nc2ccc(C(C)(C)C)cc2)[nH]n1 7.94 µM [inhibitor, partial curve, poor fit]
CCN(CC)CCC(=O)N1c2ccccc2CCc2ccc(NC(=O)OC(C)C)cc21 22.4 µM [inhibitor, single point]
CCN(CC)C(=O)CSc1ncnc2c1cnn2Cc1ccccc1 11.2 µM [inhibitor, single point]
Cc1nc2c3cc(F)ccc3n(Cc3ccccc3)c2s1 8.91 µM [inhibitor, partial curve, poor fit]
Cn1cccc1/C=C1\SC(=S)N(NC(=O)c2ccc(F)cc2)C1=O 12.6 µM [inhibitor, partial curve, poor fit]
O=C(NN1C(=O)c2ccccc2NC1c1ccccc1OCc1ccccc1)c1ccncc1 (stereo not drawn) 7.94 µM [inhibitor, partial curve, poor fit]
CN(C)C(CNC(=O)c1cccc(S(=O)(=O)N2CCN(c3ccccc3)CC2)c1)c1ccccc1 (stereo not drawn) 10 µM [inhibitor, partial curve, poor fit]
CCCCCC(=O)N/N=C(\C)c1ccccn1 12.6 µM [inhibitor, single point]
O=C(c1cccs1)N1CCc2c([nH]c3ccccc23)C1c1ccccn1 (stereo not drawn) 14.1 µM [inhibitor, single point]
C[C@H](C[C@H](O)[C@H]1OC1(C)C)C1=C2C[C@H](O)C3[C@@]4(C)CCC(=O)C(C)(C)C4CC[C@]3(C)[C@@]2(C)CC1 (stereo partly drawn) 28.2 µM [inhibitor, single point]
CC(=O)N1CCc2c(sc(NC(=O)c3ccc4c(c3)OCCO4)c2C#N)C1 2.51 µM [inhibitor, full curve, poor fit]
C[C@@H](NCCCn1ccc(NC(=O)OCc2ccccc2)nc1=O)c1cccc2ccccc12 28.2 µM [inhibitor, single point]
CCOC(=O)C1=NNC(C(=O)c2ccc(C)cc2)C1c1ccc(OC)cc1 (stereo not drawn) 10 µM [inhibitor, partial curve, poor fit]
CN(CC(=O)Nc1ccc(C#N)cc1)Cc1ccc(Cl)cc1Cl 31.6 µM [inhibitor, single point]
NC(=O)c1nnn(Cc2cc(Cl)c(C(=O)c3ccc(Cl)cc3)c(Cl)c2)c1N 5.01 µM [inhibitor, partial curve, poor fit]
CSc1nc2c([nH]1)c(=S)n(C)c(=O)n2C 0.501 µM [inhibitor, full curve, poor fit]
Cc1ccc(N(Cc2ccccc2)C(=O)c2cccc(S(=O)(=O)N3CCN(C)CC3)c2)cc1 28.2 µM [inhibitor, single point]
O=C(c1cn(-c2ccccc2)nc1-c1ccc(F)cc1)N1CCCCC1 22.4 µM [inhibitor, single point]
Cc1cc(Nc2ccc(C)c(C)c2)c2ccccc2n1 20 µM [inhibitor, partial curve, poor fit]
CC(Nc1ccccc1CO)C(=O)Nc1cccc(Cl)c1Cl (stereo not drawn) 2.51 µM [inhibitor, partial curve, poor fit]
CSc1nc(N)c(C#N)c(-c2ccccc2Cl)c1C#N 28.2 µM [inhibitor, single point]
Fc1ccc(-c2nn(-c3ccccc3)cc2CNCc2ccccc2)cc1 11.2 µM [inhibitor, single point]
CN(C)CCCN(C(=O)COc1ccccc1)c1nc2c(Cl)cccc2s1 5.62 µM [inhibitor, partial curve]
CN1CCN(C(c2ccccc2)c2ccccc2)CC1 14.1 µM [inhibitor, partial curve, poor fit]
COc1cc(CN(C(=O)COc2ccc(Br)cc2)c2ccccn2)cc(OC)c1OC 31.6 µM [inhibitor, single point]
CC1(C)C2CCC1(CS(=O)(=O)Nc1ccc(S(=O)(=O)NC3CCCCC3)cc1)C(=O)C2 (stereo not drawn) 8.91 µM [inhibitor, partial curve]
COc1ccc(-c2cc([N+](=O)[O-])ccc2OCC(=O)N(C)CC(=O)Nc2ccc(C)cc2)cc1 11.2 µM [inhibitor, partial curve, poor fit]
Cn1cc(CN2CCC(n3nccc3NC(=O)c3ccccc3Cl)CC2)c2ccccc21 2.51 µM [inhibitor, full curve, poor fit]
Clc1nc(-c2ccccn2)nc2scc(-c3ccccc3)c12 10 µM [inhibitor, partial curve, poor fit]
CSc1ccc(CN2CCC2(C)C(=O)Nc2ccc3c(c2)OCO3)cc1 (stereo not drawn) 12.6 µM [inhibitor, single point]
COC(=O)C1=C(C(=O)OC)SC2(S1)C(C(=O)OC)=C(C(=O)OC)SC1=C2c2cccc(C)c2NC1(C)C 12.6 µM [inhibitor, single point]
O=C(CSc1ncc(CO)n1Cc1ccccc1)Nc1nc2ccccc2s1 7.94 µM [inhibitor, partial curve, poor fit]
CCC(C)(C)NC(=O)C(c1ccc(OC)cc1)N(Cc1ccccc1)C(=O)CCC(=O)Nc1cc(C)on1 (stereo not drawn) 28.2 µM [inhibitor, single point]
COc1cccc(C(=O)NCCSCc2ccccc2Cl)c1 11.2 µM [inhibitor, partial curve, poor fit]
CCOc1ccccc1NC(=O)CN(C)S(=O)(=O)c1ccc2[nH]c(=O)oc2c1 7.94 µM [inhibitor, partial curve, poor fit]
O=[N+]([O-])c1ccc(/C=N/Nc2nc(N3CCCCCC3)nc(N3CCCCCC3)n2)o1 5.62 µM [inhibitor, full curve, poor fit]
COCCn1c(C)cc(C(=O)COC(=O)c2cc3c(s2)CCC3)c1C 22.4 µM [inhibitor, single point]
CC(C)(C)OC(=O)CNC(=O)c1[nH]cnc1C(=O)NC(c1ccccc1)c1ccccc1 10 µM [inhibitor, partial curve, poor fit]
CCC1(C)NC(=O)N(CC(=O)Nc2sc3c(c2C(=O)OC)CCCCC3)C1=O (stereo not drawn) 10 µM [inhibitor, partial curve, poor fit]
O=c1c2ccccc2nc(SCCN2CCCCC2)n1CCc1ccccc1 7.08 µM [inhibitor, partial curve]
Cc1ccc(-c2nc3n(n2)C(c2ccccc2C)C=C(c2ccc(Cl)cc2)N3)cc1 (stereo not drawn) 10 µM [inhibitor, partial curve, poor fit]
c1ccc(-c2ccccc2-c2nc(-c3ccncc3)no2)cc1 20 µM [inhibitor, single point]
COc1ccc(C)cc1NC(=O)C(OC(=O)c1cc(C)oc1C)c1ccccc1 (stereo not drawn) 11.2 µM [inhibitor, partial curve, poor fit]
Cc1ccc(C)c(C(=O)OCC(=O)Nc2ccc(N3CCOCC3)cc2)c1 3.98 µM [inhibitor, partial curve, poor fit]
O=c1oc2ccccc2c(O)c1/C=N/c1ccccn1 7.94 µM [inhibitor, partial curve, poor fit]
O=C(c1ccc(Cl)cc1)[C@@H]1[C@@H]2C(=O)N(c3ccccc3)C(=O)[C@@H]2C2c3ccccc3C=NN21 (stereo partly drawn) 20 µM [inhibitor, partial curve, poor fit]
